{
  "source": "PubChem BioAssay AID1745849",
  "about": "(National Center for Advancing Translational Sciences (NCATS), 2022)",
  "note": "Among all 2,100 compounds or so, about 320 (15%) were called active. The inconclusive results got no clear call from the source; some entries with a clear call stand among them for comparison. The call rests on the fitted dose curve; in most records, active means well fitted cell-killing curve with a large enough effect; inconclusive means small, poorly fitted or top-dose-only effect, or effect the other way; inactive means flat fitted curve, though single readings scatter. Potencies beside an inconclusive call are fits to weak or partial responses and may not hold up. On the % scale 0 is the no-effect control and ±100 the full control effect; potency means the concentration at half of the fitted maximal effect; tags describe the fitted curve by direction and shape.",
  "data": [
    {"test": "Viability Counterscreen for CMV-Luciferase Assay of Inhibitors of ATXN expression; further: nearly all actives have a fitted effect of over 55% in size", "conditions": "HEK-293 CMV-luciferase cells viability, protease fluorescence, 24 h; activity change, negative = cytotoxicity: at the top concentration", "method_in_brief": "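Fluorescence from cleaved Gly-Phe-AFC (25 uM final, 30 min, ex 405/em 540 nm) reported viability, and the luciferase signal of the same CMV-reporter HEK-293 wells was read 5 min after SteadyGlo addition. Dosing lasted 24 hr.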", "values": [
      {"smiles": "COc1cccc(/C=N/NC(=O)CC(C)O)c1OC/C=C/c1ccccc1", "note": "(configuration not stated)", "activity change, negative = cytotoxicity": "inactive: -8.29%"},
      {"smiles": "NC(=S)n1[nH]c(-c2ccc([N+](=O)[O-])cc2)c(N=Nc2cccc(Cl)c2)c1=O", "Potency": "active: 14.1 µM"},
      {"smiles": "Cc1cc(Nc2cccc([N+](=O)[O-])c2)n2c(nc3ccccc32)c1C#N", "Potency": "active: 3.55 µM"},
      {"smiles": "Cc1nc2ccccc2n1-c1nc(-c2ccco2)cc(C(F)(F)F)n1", "Potency": "active: 10 µM"},
      {"smiles": "c1ccc2c(c1)c1c(c3ccccc32)CN2CCCC2C1", "note": "(configuration not stated)", "activity change, negative = cytotoxicity": "inactive: -17.1% [at 57.5 µM]"},
      {"smiles": "O=C(NCc1ccco1)c1ccc(-c2cccc(Cl)c2)o1", "activity change, negative = cytotoxicity": "inactive: -7.88% [at 57.5 µM]"},
      {"smiles": "COC(=O)c1c(C)oc2ccc(N(C(=O)c3ccncc3)S(=O)(=O)c3ccc(C)cc3C)cc12", "activity change, negative = cytotoxicity": "inactive: -27.7%"},
      {"smiles": "CCOC(=O)c1c(SCCN2CCCC2)n(-c2ccccc2)c(=S)n(-c2ccccc2)c1=O", "Potency": "inconclusive: 8.91 µM [cytotoxic, single point]"},
      {"smiles": "Cn1nnnc1Sc1ncnc2scc(Br)c12", "Potency": "inconclusive: 7.08 µM [cytotoxic, single point]"},
      {"smiles": "Cc1ccc(S(=O)(=O)Nc2ccc(O)c3cccnc23)cc1", "Potency": "inconclusive: 28.2 µM [cytotoxic, single point]"},
      {"smiles": "COc1ccc(CC(N)c2csc(NC(=O)CCc3ccccc3)n2)cc1", "note": "(configuration not stated)", "Potency": "inconclusive: 28.2 µM [cytotoxic, single point]"},
      {"smiles": "Cn1nnnc1Sc1ncnc2scc(-c3ccsc3)c12", "Potency": "inconclusive: 8.91 µM [cytotoxic, single point]"},
      {"smiles": "O=C(c1cnc(N2CCN(c3ccccn3)CC2)c2ccccc12)N1CCN(c2cccc(Cl)c2)CC1", "Potency": "inconclusive: 11.2 µM [cytotoxic, partial curve, poor fit]"},
      {"smiles": "COc1ccccc1C(=O)NNC(=O)c1nn(Cc2ccccc2)c(=O)c2ccccc12", "Potency": "active: 22.4 µM"},
      {"smiles": "Cc1cccc(OCC(=O)NCC(=O)N/N=C/c2cc(Br)cc(Br)c2O)c1", "Potency": "inconclusive: 44.7 µM [rising, single point]"},
      {"smiles": "Cc1ccnc(NC(=S)N2CCN(c3cccc(C(F)(F)F)c3)CC2)c1", "Potency": "inconclusive: 12.6 µM [cytotoxic, partial curve, poor fit]"},
      {"smiles": "CCCCN(C(=O)c1cccc2c(=O)c(C)c(-c3ccccc3)oc12)c1ccccc1", "Potency": "inconclusive: 20 µM [cytotoxic, partial curve]"},
      {"smiles": "COc1ccccc1-c1cc2nc(-c3ccccc3)cc(N3CCN(C(=O)c4ccoc4)CC3)n2n1", "Potency": "active: 10 µM"},
      {"smiles": "CCC1=C(CC2NCCc3ccccc32)CC2c3cc(OC)c(OC)cc3CCN2C1", "note": "(configuration not stated)", "Potency": "active: 10 µM"},
      {"smiles": "OC[C@@H]1[C@@H](c2ccc(Cl)cc2)C(c2cccc(Cl)c2)=NN1c1ccccc1", "Potency": "inconclusive: 31.6 µM [rising, partial curve]"},
      {"smiles": "CC1CCCN(S(=O)(=O)c2ccc(C(=O)Nc3nnc(-c4ccccc4Cl)o3)cc2)C1", "note": "(configuration not stated)", "activity change, negative = cytotoxicity": "inactive: -14%"},
      {"smiles": "CCn1ccnc1CN1CCCC(C(=O)c2ccc3cc(OC)ccc3c2)C1", "note": "(configuration not stated)", "activity change, negative = cytotoxicity": "inactive: 4.36%"},
      {"smiles": "COc1cc2cc(C(=O)NC(C)c3cccc4ccccc34)c(N)nc2cc1OC", "note": "(configuration not stated)", "activity change, negative = cytotoxicity": "inactive: 1.89%"},
      {"smiles": "OCCN1CCN(c2nc(-c3ccccc3O)nc3ccccc23)CC1", "Potency": "inconclusive: 11.2 µM [cytotoxic, partial curve, poor fit]"},
      {"smiles": "Cn1c(SCC(=O)N/N=C/c2ccc([N+](=O)[O-])s2)nnc1-c1ccc(Cl)cc1", "Potency": "active: 10 µM"},
      {"smiles": "COc1cc(C(C)=O)ccc1OCC(=O)Nc1ccc(C)c(S(=O)(=O)N2CCCCCC2)c1", "Potency": "inconclusive: 4.47 µM [cytotoxic, single point]"},
      {"smiles": "CC[C@H]1CN2CCc3cc(OC)c(OC)cc3[C@@H]2C[C@@H]1C[C@H]1NCCc2cc(OC)c(OC)cc21", "Potency": "inconclusive: 0.0794 µM [cytotoxic, full curve, poor fit]"},
      {"smiles": "Cc1ccc(/C=C2/CNC/C(=C/c3ccc(C)cc3)C2=O)cc1", "Potency": "active: 8.91 µM"},
      {"smiles": "CC(C)CCNC(=O)COc1cccc2c1OC(C)(C)C2", "activity change, negative = cytotoxicity": "inactive: 3.34% [at 57.5 µM]"},
      {"smiles": "CC(=O)Oc1ccc2ccccc2c1C(NC(=O)Cc1ccccc1)c1ccccc1Cl", "note": "(configuration not stated)", "Potency": "inconclusive: 2.82 µM [cytotoxic, partial curve]"},
      {"smiles": "CCCCC(=O)N(C)c1c(CC)nc2c(OCc3ccc(Cl)cc3Cl)cccn12", "activity change, negative = cytotoxicity": "inactive: -21.3%"},
      {"smiles": "COC(=O)c1c(NC(=O)c2ccc([N+](=O)[O-])o2)sc2c1CCN(C(C)C)C2", "Potency": "active: 15.8 µM"},
      {"smiles": "O=C(N/N=C/c1cc(Br)ccc1O)C(c1ccncc1)N1CCOCC1", "note": "(configuration not stated)", "activity change, negative = cytotoxicity": "inactive: -14.8% [at 57.5 µM]"},
      {"smiles": "CCCCC(=O)NC(c1ccc(N(CC)CC)cc1)c1ccc2cccnc2c1O", "note": "(configuration not stated)", "Potency": "inconclusive: 0.398 µM [cytotoxic, full curve]"},
      {"smiles": "C[C@@H]1ON(C)[C@H]2C[C@H]3c4[nH]c5ccc(-c6ccc7c(c6)OCO7)cc5c4CCN3C(=O)[C@@H]12", "Potency": "inconclusive: 35.5 µM [rising, single point]"},
      {"smiles": "Cn1c(=O)c2c(nc(CN3CCN(Cc4ccccc4)CC3)n2Cc2ccc(Cl)cc2)n(C)c1=O", "Potency": "active: 25.1 µM"},
      {"smiles": "COc1ccc(O)c(/C=N/NC(=O)c2ccc(CSc3nc(C)cc(C)n3)cc2)c1", "activity change, negative = cytotoxicity": "inactive: -10.8% [at 57.5 µM]"},
      {"smiles": "O=C(CNS(=O)(=O)c1ccc([N+](=O)[O-])cc1)N/N=C/c1ccc(O)cc1O", "activity change, negative = cytotoxicity": "inactive: -26.6%"},
      {"smiles": "CN1CCN(C2Cc3cc(Cl)ccc3Sc3cc(F)ccc32)CC1", "note": "(configuration not stated)", "activity change, negative = cytotoxicity": "inactive: -18.4%"},
      {"smiles": "O=C(NCc1ccco1)c1nc2c(nnn2Cc2ccccc2Cl)c(=O)[nH]1", "Potency": "inconclusive: 1.26 µM [cytotoxic, full curve]"},
      {"smiles": "COc1ccc(-c2c[n+]3c(n2-c2ccc(C)cc2)CCCCC3)cc1", "Potency": "active: 12.6 µM"},
      {"smiles": "CCn1c2ccccc2c2cc(/C=N/n3cnnc3)ccc21", "activity change, negative = cytotoxicity": "inactive: -23.3%"},
      {"smiles": "CN1CCCC1CCOC(C)(c1ccccc1)c1ccc(Cl)cc1", "note": "(configuration not stated)", "Potency": "inconclusive: 20 µM [cytotoxic, partial curve, poor fit]"},
      {"smiles": "COc1ccccc1N(C)S(=O)(=O)c1ccc(C(=O)Nc2ccc(N3CCOCC3)cc2)cc1", "activity change, negative = cytotoxicity": "inactive: -29.3% [at 57.5 µM]"},
      {"smiles": "Cc1ccc(-c2noc(CCCC(=O)NC3CCCC3)n2)cc1", "Potency": "inconclusive: 15.8 µM [cytotoxic, partial curve, poor fit]"},
      {"smiles": "OC(CNCCc1ccccc1)COc1ccc(OCC(O)CNCCc2ccccc2)cc1", "note": "(configuration not stated)", "Potency": "active: 28.2 µM"},
      {"smiles": "CC(C)C(=O)NC(c1cccc([N+](=O)[O-])c1)c1ccc2cccnc2c1O", "note": "(configuration not stated)", "Potency": "active: 3.16 µM"}
    ]}
  ]
}
